This is one part of the list. No stated cut-off is given here; in the data, active = 3.2 or more and inactive = the rest. Most of these values are background signal.
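Further: displayed peptides selected on beads carrying the immobilized SH2 domain, with library peptides lacking any tyrosine serving as negative controls.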

For one assay, the target named is SHP2 C-SH2 domain E139D. The assay can be described thus: enrichment score (SH2-bound / input frequency) (ratio); bacterial display of known human phosphotyrosine sites (pTyr-Var adds point mutants) read by sequencing; higher = stronger binding; tyrosines were phosphorylated by kinases first. Particulars: peptide library: pTyr-Var.
SRDDDYETIAM [NPY1R_Y347]: the enrichment score was inactive: 0.617.
Still for that read-out and setting: with LMVFEYMRHGN [NTRK1_Y591_D596N] the figure was active: 3.21; with QRRLIYRCQVG [NR2E3_Y81_R76Q], inactive: 0.273; with MPQNEYIELHR [NSA2_Y6], inactive: 0.823.
For the molecule LGKLIYPVGFW [NTHL1_Y177], the enrichment score was inactive: 2.56.
For the molecule DVMDLYKTLRG [NR3C1_Y30_F29L], the enrichment score was inactive: 0.874.
Same read-out and setting: with LSPPVYLTNEW [NRK_Y885_I880L] the figure was inactive: 1.24; with KVASVYEAPGF [NT5C_Y65], inactive: 0.865.
Still for that read-out and setting: then AEQEEYSAMRD [NRAS_Y64_G60E], with inactive: 0.536.
Turning to RRRLIYRCQVG [NR2E3_Y81], the enrichment score was inactive: 0.249.
Take HQKKPYCHTHN [NRAP_Y53_A56T]: the enrichment score was active: 6.43.
MSRDIYSTDYY [NTRK1_Y676]: the enrichment score was inactive: 0.65.
Turning to LSIDRYHAIVY [NPSR1_Y147], the enrichment score is inactive: 1.04.
As for METKGYQSLPE [NR3C2_Y6_H7Q], the enrichment score was inactive: 0.699.
The same measure, in the same setting: then RARIRYAQEHD [NSD1_Y1987], with inactive: 0.215.
Regarding IKNPQYFSDAC [NTRK1_Y496_E492K], the enrichment score is inactive: 0.936.
On the same count and under the same terms, with INMKKYCKKDF [NTN1_Y490_YF] the figure was inactive: 1.72.
As for AACQHYGVRTC [NR4A2_Y275], the enrichment score is inactive: 1.21.
In the case of WRRLIYRCQVG [NR2E3_Y81_R76W], the enrichment score is inactive: 0.243.

The target in the next assay is SHP2 C-SH2 domain wild-type. The assay is described as above. The note with it: peptide library: pTyr-Var.
Turning to SRDDDYETIAM [NPY1R_Y347], the enrichment score is inactive: 0.534.
For the molecule LMVFEYMRHGN [NTRK1_Y591_D596N], the enrichment score was inactive: 2.16.
For QRRLIYRCQVG [NR2E3_Y81_R76Q], the enrichment score is inactive: 0.202.
On to MPQNEYIELHR [NSA2_Y6], for which the enrichment score was inactive: 0.824.
LGKLIYPVGFW [NTHL1_Y177]: the enrichment score was inactive: 2.46.
For the molecule DVMDLYKTLRG [NR3C1_Y30_F29L], the enrichment score is inactive: 0.808.
The same measure, in the same setting: with LSPPVYLTNEW [NRK_Y885_I880L] the figure was inactive: 1.12.
Same read-out and setting: then KVASVYEAPGF [NT5C_Y65], with inactive: 0.61; and AEQEEYSAMRD [NRAS_Y64_G60E], with inactive: 0.36.
Still for that read-out and setting: then RRRLIYRCQVG [NR2E3_Y81], with inactive: 0.336; and HQKKPYCHTHN [NRAP_Y53_A56T], with active: 4.73.
Regarding MSRDIYSTDYY [NTRK1_Y676], the enrichment score is inactive: 0.507.
With LSIDRYHAIVY [NPSR1_Y147], the enrichment score is inactive: 1.3.
As for METKGYQSLPE [NR3C2_Y6_H7Q], the enrichment score was inactive: 0.554.
On to RARIRYAQEHD [NSD1_Y1987], for which the enrichment score was inactive: 0.229.
As for IKNPQYFSDAC [NTRK1_Y496_E492K], the enrichment score is inactive: 0.855.
In the case of INMKKYCKKDF [NTN1_Y490_YF], the enrichment score was inactive: 1.75.
Turning to AACQHYGVRTC [NR4A2_Y275], the enrichment score is inactive: 1.25.
Same read-out and setting: with WRRLIYRCQVG [NR2E3_Y81_R76W] the figure was inactive: 0.267.

Another assay addresses SHP2 N-SH2 domain L43F. Described as above. Particulars: peptide library: pTyr-Var.
In the case of SRDDDYETIAM [NPY1R_Y347], the enrichment score is inactive: 0.428.
LMVFEYMRHGN [NTRK1_Y591_D596N]: the enrichment score is inactive: 2.52.
Regarding QRRLIYRCQVG [NR2E3_Y81_R76Q], the enrichment score was inactive: 0.261.
For MPQNEYIELHR [NSA2_Y6], the enrichment score is inactive: 0.883.
Turning to LGKLIYPVGFW [NTHL1_Y177], the enrichment score was inactive: 2.65.
Regarding DVMDLYKTLRG [NR3C1_Y30_F29L], the enrichment score is inactive: 0.899.
For LSPPVYLTNEW [NRK_Y885_I880L], the enrichment score was inactive: 1.24.
KVASVYEAPGF [NT5C_Y65]: the enrichment score was inactive: 0.779.
For AEQEEYSAMRD [NRAS_Y64_G60E], the enrichment score is inactive: 0.492.
Take RRRLIYRCQVG [NR2E3_Y81]: the enrichment score is inactive: 0.224.
For the molecule HQKKPYCHTHN [NRAP_Y53_A56T], the enrichment score was active: 6.52.
As to MSRDIYSTDYY [NTRK1_Y676], the enrichment score was inactive: 0.905.
In the case of LSIDRYHAIVY [NPSR1_Y147], the enrichment score is inactive: 1.18.
Still for that read-out and setting: then METKGYQSLPE [NR3C2_Y6_H7Q], with inactive: 0.874; and RARIRYAQEHD [NSD1_Y1987], with inactive: 0.326.
The same measure, in the same setting: with IKNPQYFSDAC [NTRK1_Y496_E492K] the figure was inactive: 0.694.
INMKKYCKKDF [NTN1_Y490_YF]: the enrichment score is inactive: 1.74.
Regarding AACQHYGVRTC [NR4A2_Y275], the enrichment score is inactive: 1.08.
For WRRLIYRCQVG [NR2E3_Y81_R76W], the enrichment score was inactive: 0.284.

The target of a further assay is SHP2 N-SH2 domain T42A. Described as above. Particulars: peptide library: pTyr-Var.
On to SRDDDYETIAM [NPY1R_Y347], for which the enrichment score is inactive: 0.52.
With LMVFEYMRHGN [NTRK1_Y591_D596N], the enrichment score was inactive: 1.96.
As to QRRLIYRCQVG [NR2E3_Y81_R76Q], the enrichment score was inactive: 0.204.
On to MPQNEYIELHR [NSA2_Y6], for which the enrichment score is inactive: 0.997.
As for LGKLIYPVGFW [NTHL1_Y177], the enrichment score is inactive: 2.12.
As to DVMDLYKTLRG [NR3C1_Y30_F29L], the enrichment score was inactive: 0.798.
On the same count and under the same terms, with LSPPVYLTNEW [NRK_Y885_I880L] the figure was inactive: 1.6; with KVASVYEAPGF [NT5C_Y65], inactive: 0.53; with AEQEEYSAMRD [NRAS_Y64_G60E], inactive: 0.406.
For RRRLIYRCQVG [NR2E3_Y81], the enrichment score is inactive: 0.22.
HQKKPYCHTHN [NRAP_Y53_A56T]: the enrichment score was active: 5.16.
With MSRDIYSTDYY [NTRK1_Y676], the enrichment score was inactive: 0.486.
With LSIDRYHAIVY [NPSR1_Y147], the enrichment score was inactive: 1.36.
The same measure, in the same setting: then METKGYQSLPE [NR3C2_Y6_H7Q], with inactive: 0.653.
For the molecule RARIRYAQEHD [NSD1_Y1987], the enrichment score was inactive: 0.37.
As to IKNPQYFSDAC [NTRK1_Y496_E492K], the enrichment score was inactive: 0.779.
In the case of INMKKYCKKDF [NTN1_Y490_YF], the enrichment score is inactive: 1.58.
Consider AACQHYGVRTC [NR4A2_Y275], for which the enrichment score was inactive: 1.08.
As for WRRLIYRCQVG [NR2E3_Y81_R76W], the enrichment score was inactive: 0.336.

The next assay has as its target SHP2 N-SH2 domain T52S. The description is as above. Particulars: peptide library: pTyr-Var.
For the molecule SRDDDYETIAM [NPY1R_Y347], the enrichment score is inactive: 0.459.
LMVFEYMRHGN [NTRK1_Y591_D596N]: the enrichment score is inactive: 2.88.
In the case of QRRLIYRCQVG [NR2E3_Y81_R76Q], the enrichment score was inactive: 0.253.
As to MPQNEYIELHR [NSA2_Y6], the enrichment score is inactive: 0.867.
With LGKLIYPVGFW [NTHL1_Y177], the enrichment score is inactive: 2.58.
In the case of DVMDLYKTLRG [NR3C1_Y30_F29L], the enrichment score was inactive: 0.782.
In the case of LSPPVYLTNEW [NRK_Y885_I880L], the enrichment score is inactive: 1.58.
On to KVASVYEAPGF [NT5C_Y65], for which the enrichment score was inactive: 0.626.
Take AEQEEYSAMRD [NRAS_Y64_G60E]: the enrichment score was inactive: 0.445.
In the case of RRRLIYRCQVG [NR2E3_Y81], the enrichment score was inactive: 0.193.
On to HQKKPYCHTHN [NRAP_Y53_A56T], for which the enrichment score is active: 5.38.
As for MSRDIYSTDYY [NTRK1_Y676], the enrichment score was inactive: 0.647.
Regarding LSIDRYHAIVY [NPSR1_Y147], the enrichment score was inactive: 1.4.
The same measure, in the same setting: then METKGYQSLPE [NR3C2_Y6_H7Q], with inactive: 0.603; and RARIRYAQEHD [NSD1_Y1987], with inactive: 0.247.
Same read-out and setting: with IKNPQYFSDAC [NTRK1_Y496_E492K] the figure was inactive: 0.938; with INMKKYCKKDF [NTN1_Y490_YF], inactive: 1.7.
As to AACQHYGVRTC [NR4A2_Y275], the enrichment score was inactive: 1.07.
For WRRLIYRCQVG [NR2E3_Y81_R76W], the enrichment score is inactive: 0.253.

The target of a further assay is SHP2 N-SH2 domain wild-type. The assay is described as above. The note with it: peptide library: pTyr-Var.
Regarding SRDDDYETIAM [NPY1R_Y347], the enrichment score is inactive: 0.684.
Regarding LMVFEYMRHGN [NTRK1_Y591_D596N], the enrichment score is inactive: 2.36.
QRRLIYRCQVG [NR2E3_Y81_R76Q]: the enrichment score is inactive: 0.22.
Take MPQNEYIELHR [NSA2_Y6]: the enrichment score was inactive: 0.902.
Take LGKLIYPVGFW [NTHL1_Y177]: the enrichment score is inactive: 2.28.
The same measure, in the same setting: with DVMDLYKTLRG [NR3C1_Y30_F29L] the figure was inactive: 1; with LSPPVYLTNEW [NRK_Y885_I880L], inactive: 1.15; with KVASVYEAPGF [NT5C_Y65], inactive: 0.834.
AEQEEYSAMRD [NRAS_Y64_G60E]: the enrichment score was inactive: 0.55.
As to RRRLIYRCQVG [NR2E3_Y81], the enrichment score is inactive: 0.207.
Same read-out and setting: with HQKKPYCHTHN [NRAP_Y53_A56T] the figure was active: 4.54.
With MSRDIYSTDYY [NTRK1_Y676], the enrichment score was inactive: 0.53.
As to LSIDRYHAIVY [NPSR1_Y147], the enrichment score is inactive: 1.2.
Take METKGYQSLPE [NR3C2_Y6_H7Q]: the enrichment score is inactive: 0.655.
Still for that read-out and setting: then RARIRYAQEHD [NSD1_Y1987], with inactive: 0.262.
Consider IKNPQYFSDAC [NTRK1_Y496_E492K], for which the enrichment score is inactive: 0.975.
As for INMKKYCKKDF [NTN1_Y490_YF], the enrichment score is inactive: 1.91.
As for AACQHYGVRTC [NR4A2_Y275], the enrichment score is inactive: 1.19.
On the same count and under the same terms, then WRRLIYRCQVG [NR2E3_Y81_R76W], with inactive: 0.359.

The values above are taken from the supplement of paper PMC10369915.
